PMC4923902 (Scientific Reports, 2016)

Tests used:
[1] = biological target: T1, phosphorylated Metarhodopsin II (bovine, UniProt P02699 1-348, phosphorylated on the C-terminus by endogenous GRK1 (sites not given); all-trans retinal, Schiff base-linked); experiment: pull-down; centrifugal pull-down in 96-well plates; cleared E. coli lysate with arrestin-mCherry (est. 0.1-0.6 uM) mixed with ROS membranes with phosphorylated rhodopsin (1.85 uM), 37 °C 2 min, illuminated (Meta II-P), pelleted at 4 °C; NaCl titrated 50-2500 mM as inhibitor; mCherry fluorescence of the washed pellet; IC50 of NaCl from a four-parameter fit; HEPES pH 7.0; conditions: partners not purified
T1 construct: bovine rhodopsin, endogenous in ROS membranes; in isolated, washed ROS disc membranes, not on whole cells; also called Meta II-P

phosphorylated opsin = biological target: T2, phosphorylated opsin (bovine, UniProt P02699 1-348, phosphorylated on the C-terminus by endogenous GRK1 (sites not given); no retinal (apo-protein)); experiment: pull-down; centrifugal pull-down in 96-well plates; cleared E. coli lysate with arrestin-mCherry (est. 0.1-0.6 uM) mixed with ROS membranes with Ops-P (1.85 uM), 37 °C 2 min, pelleted at 4 °C; NaCl titrated 4.4-1504 mM as inhibitor; mCherry fluorescence of the washed pellet; IC50 of NaCl from a four-parameter fit; HEPES pH 7.0, hydroxylamine in the lysis buffer; conditions: partners not purified
Chain of phosphorylated opsin (P02699 whole entry, the tested form may be a part): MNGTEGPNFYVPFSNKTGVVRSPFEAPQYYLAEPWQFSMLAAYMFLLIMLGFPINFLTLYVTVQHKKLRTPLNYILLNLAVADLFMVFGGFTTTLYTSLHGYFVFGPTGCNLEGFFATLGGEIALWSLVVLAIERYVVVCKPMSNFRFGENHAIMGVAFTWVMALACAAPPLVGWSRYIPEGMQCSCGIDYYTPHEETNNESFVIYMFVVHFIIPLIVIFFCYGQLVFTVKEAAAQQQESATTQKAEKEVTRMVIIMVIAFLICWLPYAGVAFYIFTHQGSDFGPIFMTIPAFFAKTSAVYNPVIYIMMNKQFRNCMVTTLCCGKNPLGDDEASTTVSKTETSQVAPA
T2 construct: bovine opsin (apo-protein of rhodopsin), endogenous in ROS membranes; in isolated, washed ROS disc membranes, not on whole cells; also called Ops-P; OpsP

fold increase in IC50 of NaCl against wild type [1] [fold] | fold increase in IC50 of NaCl against wild type (phosphorylated opsin) [fold] | Binder
~1.4 | ~2.9 | arrestin-1 F375 alanine mutant, mCherry fusion (natural protein, bovine arrestin-1 (SAG); single mutant of the alanine scan; also called alanine substitution at site 375; source: E. coli BL21(DE3), cleared cell lysate) not shown
~1.4 | ~2.9 | arrestin-1 F377 alanine mutant, mCherry fusion (natural protein, bovine arrestin-1 (SAG); single mutant of the alanine scan; also called alanine substitution at site 377; source: E. coli BL21(DE3), cleared cell lysate) not shown
1.4 | 4 | arrestin-1 with truncated C-tail ([…], Δ[…]) (domain or fragment, bovine arrestin-1 (SAG), […]; also called C-tail truncation) not shown
